The results in this text go back to the antibiotic and cytotoxicity screens of Wong et al. (2023).

SMILES strings stand for the structures. Some of the results follow.

The subject of the assay is HepG2. The experiment in a line: cytotoxicity call (relative viability < 0.9). Conditions: 10 µM.
Turning to `N#Cc1ccc(Oc2ccccn2)cc1`, the cytotoxicity call was “inactive”.
The value for `COCC(=O)Nc1ccc2c(c1)C(=O)N(C)[C@H]1CC[C@H](CC(=O)NCc3ccccc3Cl)O[C@H]1CO2` was “inactive”.
The value for `CO[C@@H]1CN(C)C(=O)c2cc(NS(=O)(=O)CC(F)(F)F)ccc2OC[C@@H](C)N(C(=O)NC(C)C)C[C@@H]1C` was “inactive”; that for `C[C@@H]1CN([C@@H](C)CO)C(=O)c2cc(NC(=O)C3CCCCC3)ccc2O[C@@H](C)CCCCO[C@@H]1CN(C)C(=O)c1ccncc1` was “inactive”.
The value for `COCC(=O)N(C)C[C@H]1Oc2cc(-c3ccc(OC)cc3)ccc2S(=O)(=O)N([C@@H](C)CO)C[C@@H]1C` was “inactive”; that for `C[C@H](CO)N1C[C@H](C)[C@@H](CN(C)Cc2ccc(C(=O)Nc3ccccc3N)cc2)Oc2ccc(NS(C)(=O)=O)cc2CC1=O` was “inactive”.
`C[C@@H]1CN([C@H](C)CO)C(=O)c2cc(NC(=O)CCCN(C)C)ccc2O[C@@H]1CN(C)Cc1ccncc1`: the cytotoxicity call is “inactive”.
The value for `C[C@H](CO)N1C[C@H](C)[C@@H](CN(C)S(=O)(=O)c2ccc(F)cc2)Oc2c(NS(C)(=O)=O)cccc2C1=O` was “inactive”; that for `C[C@@H]1CN([C@H](C)CO)C(=O)c2cccc(NS(=O)(=O)c3cn(C)cn3)c2O[C@H]1CN(C)S(=O)(=O)c1cccs1` was “inactive”.
For the compound `Cc1noc(C)c1NC(=O)Nc1cccc2c1O[C@H](CN(C)Cc1ccc(Cl)c(Cl)c1)[C@H](C)CN([C@@H](C)CO)C2=O`, the cytotoxicity call was “inactive”.
For `C[C@H]1CN([C@@H](C)CO)C(=O)Cc2cc(NC(=O)CCN3CCOCC3)ccc2O[C@@H]1CN(C)S(=O)(=O)c1ccc(F)cc1`, the cytotoxicity call was “inactive”.
The value for `C[C@H](CO)N1C[C@H](C)[C@H](CN(C)S(C)(=O)=O)Oc2ccc(NC(=O)c3ccncc3)cc2CC1=O` was “inactive”.
For `COC1=C2C[C@H](C)C[C@H](OC)[C@@H](O)[C@H](C)/C=C(\C)[C@H](OC(N)=O)[C@H](OC)/C=C/C=C(\C)C(=O)NC(=CC1=O)C2=O`, the cytotoxicity call was “active”.
In the case of `Cc1noc(C)c1NC(=O)N(C)C[C@@H]1Oc2ncc(C#CCN(C)C)cc2C(=O)N([C@@H](C)CO)C[C@H]1C` it was “inactive”.
The value for `OS(=O)(=O)c1ccc(cc1)/C/1=C\2/N/C(=C(\C3=N/C(=C(/c4ccc(cc4)S(=O)(=O)O)c4ccc([nH]4)/C(=C\4/C=CC1=N4)c1ccc(cc1)S(=O)(=O)O)C=C3)c1ccc(cc1)S(=O)(=O)O)C=C2` was “inactive”; that for `CCc1nc2ccccc2nc1CC` was “inactive”.
In the case of `C[C@@H]1CN([C@H](C)CO)C(=O)c2cccc(NS(=O)(=O)c3ccc(F)cc3)c2O[C@@H]1CN(C)Cc1ccncc1` it was “inactive”; in that of `COc1ccc(S(=O)(=O)N(C)C[C@H]2OCCCC[C@H](C)Oc3ccc(NS(C)(=O)=O)cc3C(=O)N([C@@H](C)CO)C[C@H]2C)cc1`, “inactive”.
On to `C[C@@H]1CN([C@@H](C)CO)C(=O)c2cc(NS(=O)(=O)c3ccc(F)cc3)ccc2O[C@@H](C)CCCCO[C@H]1CN(C)Cc1ccc(C(=O)O)cc1`, for which the cytotoxicity call was “inactive”.
The value for `CO[C@@H]1CN(C)C(=O)c2cc(NS(=O)(=O)CC(F)(F)F)ccc2OC[C@H](C)N(Cc2cccnc2)C[C@@H]1C` was “inactive”.
Turning to `N#C[C@@H]1C[C@@H]2C[C@@H]2N1C(=O)[C@@H](N)[C@@]12C[C@@H]3C[C@@H](C[C@@](O)(C3)C1)C2`, the cytotoxicity call was “inactive”.
